Experiments:
Settings in all cases: among huAbF46-H4-A1, -A2, -A3, -A5
[1] = system: Akt phosphorylation; test: Akt phosphorylation by affinity-matured antibodies; format: cell-based
[2] = biological target: T1, c-Met (Homo sapiens, UniProt P08581); test: c-Met degradation by affinity-matured antibodies; format: cell-based
[3] = biological target: T1, c-Met; test: affinity for c-Met of affinity-matured antibodies; format: binding

T1 sequence (P08581 25-1390): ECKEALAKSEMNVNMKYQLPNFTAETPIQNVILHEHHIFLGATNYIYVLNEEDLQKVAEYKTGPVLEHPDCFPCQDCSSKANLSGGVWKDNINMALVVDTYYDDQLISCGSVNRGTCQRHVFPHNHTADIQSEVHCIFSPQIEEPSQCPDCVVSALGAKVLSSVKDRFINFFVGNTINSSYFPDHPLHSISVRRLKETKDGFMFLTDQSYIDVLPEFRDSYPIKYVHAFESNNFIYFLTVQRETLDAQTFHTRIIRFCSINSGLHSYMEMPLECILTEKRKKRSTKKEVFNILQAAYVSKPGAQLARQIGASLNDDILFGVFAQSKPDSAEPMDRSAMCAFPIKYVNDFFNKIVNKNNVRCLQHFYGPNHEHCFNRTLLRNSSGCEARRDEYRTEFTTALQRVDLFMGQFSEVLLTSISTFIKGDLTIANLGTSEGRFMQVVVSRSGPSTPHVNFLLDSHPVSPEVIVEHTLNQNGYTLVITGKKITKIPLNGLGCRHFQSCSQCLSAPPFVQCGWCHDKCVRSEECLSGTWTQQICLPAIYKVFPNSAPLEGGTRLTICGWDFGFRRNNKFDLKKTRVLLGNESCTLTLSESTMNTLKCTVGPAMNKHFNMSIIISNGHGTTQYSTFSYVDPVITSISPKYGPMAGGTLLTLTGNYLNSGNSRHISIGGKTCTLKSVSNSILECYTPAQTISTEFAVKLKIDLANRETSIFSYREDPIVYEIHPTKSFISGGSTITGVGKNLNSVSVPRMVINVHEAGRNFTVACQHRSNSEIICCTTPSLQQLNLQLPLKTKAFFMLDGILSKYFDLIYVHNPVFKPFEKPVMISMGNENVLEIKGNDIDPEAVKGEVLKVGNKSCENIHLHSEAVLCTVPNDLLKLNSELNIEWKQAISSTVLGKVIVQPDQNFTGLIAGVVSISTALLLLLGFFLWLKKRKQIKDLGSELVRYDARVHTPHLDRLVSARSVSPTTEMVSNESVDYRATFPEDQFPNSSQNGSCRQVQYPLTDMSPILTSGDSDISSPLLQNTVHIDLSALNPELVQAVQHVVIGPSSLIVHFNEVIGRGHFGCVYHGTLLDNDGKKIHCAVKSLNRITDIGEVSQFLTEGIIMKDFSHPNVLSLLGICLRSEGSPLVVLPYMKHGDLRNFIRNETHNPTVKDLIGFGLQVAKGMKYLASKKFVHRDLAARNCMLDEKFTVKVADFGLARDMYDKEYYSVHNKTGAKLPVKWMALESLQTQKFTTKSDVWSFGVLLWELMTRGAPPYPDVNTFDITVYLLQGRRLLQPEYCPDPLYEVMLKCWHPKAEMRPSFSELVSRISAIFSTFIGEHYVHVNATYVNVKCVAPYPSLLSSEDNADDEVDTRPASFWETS

- c-Met degradation degree (rank among the four antibodies) [2]: lowest
- affinity for c-Met (rank among the four antibodies) [3]: highest
B1: huAbF46-H4-A1: affinity-matured humanized anti-c-Met antibody, L3-1 origin (antibody)
heavy: EVQLVESGGGLVQPGGSLRLSCAASGFTFTDYYMSWVRQAPGKGLEWLGFIRNKANGYTTEYSASVKGRFTISRDNSKNTLYLQMNSLRAEDTAVYYCARDNWFAYWGQGTLVTVSSASTKGPSVFPLAPSSKSTSGGTAALGCLVKDYFPEPVTVSWNSGALTSGVHTFPAVLQSSGLYSLSSVVTVPSSSLGTQTYICNVNHKPSNTKVDKKVEPKSCDCH[human IgG1 Fc not given here]
light: DIQMTQSPSSLSASVGDRVTITCKSSQSLLASGNQNNYLAWHQQKPGKAPKMLIIWASTRVSGVPSRFSGSGSGTDFTLTISSLQPEDFATYYCQQSYSRPYTFGQGTKVEIKRTVAAPSVFIFPPSDEQLKSGTASVVCLLNNFYPREAKVQWKVDNALQSGNSQESVTEQDSKDSTYSLSSTLTLSKADYEKHKVYACEVTHQGLSSPVTKSFNRGEC
- Akt phosphorylation (rank among the four antibodies) [1]: lowest

Source: patent US9943596B2, “Combination therapy using dual inhibitor of c-MET and EGFR and IGF-1R inhibitor” (Samsung Electronics Co., Ltd., priority 2014, dated 2018)
